Hit rate of the full screen: of about 120,000 compounds, about 5,300 (4.4%) were called active. The shares of active, inactive and inconclusive entries below differ from those in the screen. Calls follow the shape of the dose curve; as a rule, active = well fitted inhibition curve with a large enough effect; inconclusive = small, poorly fitted or top-dose-only effect; inactive = no such curve, though single readings can be large or run the other way. A potency beside an inconclusive call is a rough fit, not a confirmed value.
Experiment: qHTS Primary assay for Inhibitors of Plasmodium falciparum Dd2 growth in vitro; also: nearly all actives have a fitted effect of over 65% in size;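 as to activity, negative = inhibition: plate controls were DMSO vehicle for no effect and reference drug for full effect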
Details: P. falciparum Dd2 growth, SYBR Green, 72 h; activity, negative = inhibition: at 28.9 µM (top of the series) unless noted; series mostly up to 28.9 µM
Method in brief: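 Infected erythrocytes (Dd2, 0.3% parasitemia, 2.5% hematocrit final) are added to compound in RPMI-1640/Albumax II medium, grown 72 h at 37C in low oxygen, then lysed with saponin/Triton-X containing SYBR Green and read by fluorescence.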
Potency is read from the fitted curve at half-maximal effect; tags tell the direction and shape of the fitted curve.

SMILES | Potency | activity, negative = inhibition
O=C(NCc1nnc2n1C(C(=O)NCc1cccnc1)CC2)c1cccnc1 (configuration not stated) | inactive | 
COCc1cc(N2CCN(C)C3(CCC(=O)N(C)CC3)C2)ncn1 (configuration not stated) | inactive | 
O=C(CCNc1cnc2cnccn12)NC1CCN(Cc2ccccc2)CC1 | inconclusive: 2.51 µM [inhibitor, partial curve, poor fit] | 
CCCCn1c(-c2ccc(C)cc2)c(C)n2c3c(=O)n(C)c(=O)n(C)c3nc12 | inconclusive: 12.6 µM [inhibitor, single point] | 
Cc1ccc(OCCCCn2c(CCNC(=O)C(C)(C)C)nc3ccccc32)cc1 | inconclusive: 11.2 µM [inhibitor, single point] | 
Cc1c(NC(=O)c2ccc(N3CCC(C)CC3)c([N+](=O)[O-])c2)cccc1-c1nc2ccccc2o1 | inactive | 
COCCCNC(=O)C1CCC(Cn2c(=O)c3sccc3n(Cc3ccc(F)cc3)c2=O)CC1 (configuration not stated) | inconclusive: 5.62 µM [inhibitor, partial curve, poor fit] | 
CCC1(C(=O)Nc2cc(OC)ccc2OC)CCCCC(=O)N1 (configuration not stated) | inactive | 
Nc1nc(C2CC(N)C2)cc(N2CCCN(Cc3cccs3)CC2)n1 (configuration not stated) | inconclusive: 20 µM [inhibitor, single point] | 
COCC1CN(C)CC12CCN(S(=O)(=O)c1cccs1)CC2 (configuration not stated) | active: 3.55 µM | 
O=C(c1ccsc1)N1CCC(Cc2nc(C3CCOCC3)no2)CC1 | inactive | 
O=C1CCN(C(=O)C2CC=CC2)CCCC(c2nc(-c3cccnc3)no2)CCN1 (configuration not stated) | inconclusive: 2.24 µM [inhibitor, single point] | 
COc1cccc(C(=O)N2CCC3(CC2)N=C(c2ccc(C)cc2)NO3)c1 | inactive | 
CC1(C)CN(C(=O)CSC23CC4CC(CC(C4)C2)C3)CC1(C)O (configuration not stated) | inconclusive: 11.2 µM [inhibitor, partial curve, poor fit] | 
CCCCOC(=O)c1ccc(NC(=O)Cc2coc3ccc(C(C)C)cc23)cc1 | inconclusive: 11.2 µM [inhibitor, partial curve, poor fit] | 
Cc1ccc(C)c(S(=O)(=O)c2nnn3c2nc(Nc2ccc(F)c(Cl)c2)c2sccc23)c1 | active: 12.6 µM | 
Cc1noc([C@@H]2CN(Cc3cc(F)cc(F)c3)C[C@H]2CO)n1 | inactive | 
O=C(c1ccccc1)N1CC2(CCCN2CC2CC2)Cc2ccccc21 (configuration not stated) | inconclusive: 8.91 µM [inhibitor, partial curve] | 
Cc1ccc(C)c(N2CCN(C(=O)c3cc(S(=O)(=O)N4CCCC4)cn3C)CC2)c1 | inconclusive: 12.6 µM [inhibitor, single point] | 
COc1ccc(C(=O)N2CCC(n3cc(-c4nc(C)no4)nn3)C2)cc1F (configuration not stated) | inactive | 
COc1cc(OC)c(OC)cc1CN1CCc2nc(N(C)C)[nH]c(=O)c2CC1 | inconclusive: 0.355 µM [inhibitor, full curve, poor fit] | 
CCc1noc(-c2nc(-c3ccc4c(c3)OCO4)no2)n1 | inactive | 
COc1ccccc1Cn1ccn2nc3c(c2c1=O)CCCC3 | inconclusive: 6.31 µM [inhibitor, partial curve, poor fit] | 

SMILES | Potency | activity, negative = inhibition
Cc1cccc(-c2ncc(CN3CCC4(CCCNC4)C3)cn2)c1 (configuration not stated) | inconclusive: 11.2 µM [inhibitor, partial curve, poor fit] | 
Cc1ccc(-c2noc([C@@H]3Cc4nc[nH]c4CN3Cc3ccc(C(=O)O)cc3)n2)cc1 | inconclusive: 11.2 µM [inhibitor, single point] | 
O=C(c1cc(Cl)ccc1F)N1CCC(OC2CCN(Cc3ccccc3)CC2)CC1 | inconclusive: 7.08 µM [inhibitor, partial curve, poor fit] | 
CCOC(=O)C1CCN(C(=O)Cn2ncc3c([nH]c4ccc(C)cc43)c2=O)CC1 | inactive | 
CC(=O)N1CCC2(CC1)OC(=O)C(C)=C2C(=O)Nc1ccccc1C(F)(F)F | inactive | 
CC(=O)Nc1ccc(C(=O)NC2CCN(c3cc(-c4cccs4)[nH]n3)C2)cc1 (configuration not stated) | inactive | 
Cc1cccc(N(CC(=O)NCCSc2ccc(Cl)cc2)S(=O)(=O)c2ccccc2)c1C | inconclusive: 11.2 µM [inhibitor, partial curve, poor fit] | 
COc1cc(C(=O)N2CCc3c([nH]c4ccccc34)C2c2ccccc2)cc(OC)c1OC (configuration not stated) | inconclusive: 6.31 µM [inhibitor, partial curve, poor fit] | 
COc1cccc(CN2CC(Oc3ccccc3C(=O)NC3CC3)C2)n1 | active: 3.98 µM | 
Cc1ccc(-n2c(SCC(=O)Nc3cccc(Cl)c3)nc3n[nH]c(C)c3c2=N)cc1 | active: 12.6 µM | 
CC(C)OCCCNC(=O)c1ccc(N2CC3CC(C2)[C@H]2CCCC(=O)N2C3)nc1 (some centres not stated) | inactive | 
O=C(c1cccs1)N1CC(Oc2ccc(-c3nc(-c4ccccc4)no3)cc2)C1 |  | inactive: 8.59% [at 5.79 µM]
O=C(N1CCOc2ccc(CN3CCc4ccccc4C3)cc2C1)C1(c2ccccc2)CC1 | inconclusive: 2.51 µM [inhibitor, partial curve, poor fit] | 
Cc1noc(-c2cn(C3CCN(C(=O)c4ccc5c(c4)OCO5)CC3)nn2)n1 | inactive | 
FC(F)(F)c1ccc(N2C3CCC2CN(Cc2cccc(-c4cccnc4)c2)C3)cc1 | active: 11.2 µM | 
O=C(C[C@@H]1CCNC[C@@H]1Cc1cc(-c2ccccc2)on1)N1CCCCC1 | inconclusive: 20 µM [inhibitor, single point] | 
COc1cc2c(cc1CN1CCN(c3ccc(C#N)cc3)C(=O)C1)CCC2 | inconclusive: 8.91 µM [inhibitor, partial curve] | 
Cc1ccc(Cl)cc1N1CCN(CCNC(=O)Nc2ccc(Cl)cc2)CC1 | inconclusive: 7.94 µM [inhibitor, partial curve] | 
COc1ccc(-c2nc(-c3ccccc3)nc3c2CN(C(=O)c2cccc(OC)c2)CC3)cc1 | inconclusive: 12.6 µM [inhibitor, partial curve, poor fit] | 
O=C(N[C@H]1CCOC[C@H]1C1CCOCC1)c1cncs1 | inactive | 
COc1cccc(C(=O)N2CCC3(CC2)CC(N(C)Cc2ccccc2)CCO3)c1 (configuration not stated) | inconclusive: 2.24 µM [inhibitor, partial curve] | 
COc1ccc(Nc2cnc3ccc(-c4ccc(F)cc4)nn23)cc1OC | active: 2.82 µM | 
Cc1ccc(NC(=O)N2C[C@@H](Oc3cccnc3)C[C@H]2C(=O)N2CCCC2)cc1C | inconclusive: 12.6 µM [inhibitor, partial curve] | 

SMILES | Potency | activity, negative = inhibition
O=C(Cc1c[nH]c2ncc(-c3cn[nH]c3)cc12)NCc1cccnc1 | active: 11.2 µM | 
CC(=O)N1CCc2c(sc3c2c(=O)n(-c2ccc(C)cc2)c(=O)n3CC(=O)Nc2ccccc2)C1 | inconclusive: 15.8 µM [inhibitor, single point] | 
COc1ccc(Cn2c(C3CCN(C(=O)c4ccc(C)cc4)CC3)n[nH]c2=O)cc1 | inconclusive: 17.8 µM [inhibitor, single point] | 
N#Cc1ccc([S+](=O)([O-])N2CCC3(CC2)OCCN(CC2CCOCC2)C3=O)cc1 | inconclusive: 14.1 µM [inhibitor, partial curve, poor fit] | 
Cc1cc(N2CCC(C)CC2)nc2ccc(NC(=O)/C=C/c3cccc(Cl)c3)cc12 | inconclusive: 1.58 µM [inhibitor, single point] | 
COc1ccc(CC(=O)N2CCC3(CC2)CC(=O)N(c2ccccc2)c2ccccc2O3)cc1 | inconclusive: 11.2 µM [inhibitor, partial curve] | 
CC(C)c1ccc(Nc2c(-c3ccccc3O)nc3cnccn23)cc1 | active: 3.55 µM | 
CC(NC(=O)Cn1c(-c2cccs2)cc2cc(F)ccc21)c1ccccc1 (configuration not stated) | active: 1.12 µM | 
CC1(c2ccccc2)N(Cc2ccccc2)C(=O)OC12CCN(c1cccnc1)CC2 (configuration not stated) | inconclusive: 2.82 µM [inhibitor, partial curve] | 
O=c1[nH]c(SCc2ccc(Br)cc2)nc2c1CCCC2 | inactive | 
COc1ccc(CN2CCC(N3Cc4ccccc4C3=O)CC2)cc1 | inactive | 
O=C(N[C@H]1C[C@H]2C(=O)Nc3ccccc3C(=O)N2C1)c1cccnc1 | inactive | 
COc1ccc(C(=O)N2CCCC(c3nn(C)c(=O)n3-c3ccccc3)C2)cn1 (configuration not stated) | inactive | 
Cc1nc(C)c(C(=O)N2CCC(Oc3ccccc3-c3nc(-c4ccccc4)no3)C2)s1 (configuration not stated) | inconclusive: 10 µM [inhibitor, partial curve, poor fit] | 
CCc1ccc(NC(=O)CSc2nc(=O)n(Cc3ccco3)c3c2CCC3)cc1 | inconclusive: 17.8 µM [inhibitor, single point] | 
COc1ccc2nc(NC(=O)c3ccc(S(=O)(=O)N4CCCC(C)C4)cc3)sc2c1 (configuration not stated) | inconclusive: 17.8 µM [inhibitor, single point] | 
COc1cc(OC)cc(-c2onc(C)c2C(=O)NCc2ccccc2C)c1 | inconclusive: 8.91 µM [inhibitor, partial curve] | 
Cc1cc(=O)n(CC(=O)Nc2cc(Cl)ccc2C)c(N(C)Cc2ccccc2)n1 | inconclusive: 10 µM [inhibitor, single point] | 
CC(=O)N[C@H]1CN(C2CCN(c3ccc(F)cc3C)CC2)C[C@@H]1C1CC1 | inconclusive: 7.94 µM [inhibitor, partial curve] | 
CN(C)C(=O)c1ccc(OC2CCN(C(=O)c3ccc(C(F)(F)F)cc3)CC2)nc1 | inactive | 
CN(C)C(=O)c1nc(-c2cccc(C(F)(F)F)c2)c2ccccn12 | inconclusive: 31.6 µM [inhibitor, single point] | 

— PubChem BioAssay AID1347417 (National Center for Advancing Translational Sciences (NCATS), 2020)
